Out of some 360,000 compounds screened, about 520 (0.14%) were called active. This list was built around the results that the source calls inconclusive (neither active nor inactive); the mix of calls is not that of the screen. Calls follow the shape of the dose curve; as a rule, active = well fitted inhibition curve with a large enough effect; inconclusive = small, poorly fitted or top-dose-only effect; inactive = no such curve, though single readings can be large or run the other way. Potencies of inconclusive entries are left out as doubtful fits.
Biological target: Rap guanine nucleotide exchange factor 3 (Homo sapiens) (UniProt O95398)
UniProt O95398, sequence (O95398 whole entry, looked up): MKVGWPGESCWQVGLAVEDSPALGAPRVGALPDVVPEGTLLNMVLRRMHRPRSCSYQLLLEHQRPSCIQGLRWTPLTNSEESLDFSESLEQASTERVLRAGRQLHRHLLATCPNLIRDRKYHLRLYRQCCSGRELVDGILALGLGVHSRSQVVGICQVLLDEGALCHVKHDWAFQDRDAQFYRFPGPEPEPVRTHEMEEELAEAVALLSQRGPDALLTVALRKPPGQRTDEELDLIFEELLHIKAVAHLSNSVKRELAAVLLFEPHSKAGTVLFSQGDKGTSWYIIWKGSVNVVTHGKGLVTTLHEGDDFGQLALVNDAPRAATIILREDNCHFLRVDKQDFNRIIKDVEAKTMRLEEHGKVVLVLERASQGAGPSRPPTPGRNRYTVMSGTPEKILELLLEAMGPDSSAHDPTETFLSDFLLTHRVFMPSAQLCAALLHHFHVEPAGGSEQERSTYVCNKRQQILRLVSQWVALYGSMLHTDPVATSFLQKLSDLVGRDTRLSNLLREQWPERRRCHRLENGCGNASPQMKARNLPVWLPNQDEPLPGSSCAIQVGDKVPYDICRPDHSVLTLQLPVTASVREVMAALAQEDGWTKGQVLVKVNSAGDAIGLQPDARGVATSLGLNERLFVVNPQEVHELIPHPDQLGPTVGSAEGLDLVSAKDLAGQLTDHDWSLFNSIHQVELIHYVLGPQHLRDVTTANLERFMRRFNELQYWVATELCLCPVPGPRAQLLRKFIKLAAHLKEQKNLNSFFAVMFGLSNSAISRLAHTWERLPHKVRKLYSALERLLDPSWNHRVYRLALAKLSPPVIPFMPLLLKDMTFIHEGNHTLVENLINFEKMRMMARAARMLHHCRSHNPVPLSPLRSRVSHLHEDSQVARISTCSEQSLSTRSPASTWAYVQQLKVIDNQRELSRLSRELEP
Assay: qHTS for Antagonist of cAMP-regulated guanine nucleotide exchange factor 3 (EPAC1): primary screen; also: nearly all actives have a fitted effect of over 50% in size;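 as to activity change, negative = inhibition: plate controls were vehicle for no effect and positive control for full effect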
Conditions: EPAC1 GEF assay, Rap1b-BODIPY-GDP exchange fluorescence; activity change, negative = inhibition: at 115 µM (top of the series)
Potency is read from the fitted curve at half-maximal effect; tags tell the direction and shape of the fitted curve.

Structure (SMILES) | Potency | activity change, negative = inhibition
COCCCNc1nc2ccccc2nc1NS(=O)(=O)c1ccc(C)c(C)c1 | inconclusive [inhibitor, partial curve] | 
COc1ccccc1CNC(=O)Cn1nnnc1CN(C)C(C)C | inactive | 
Cn1cc(S(=O)(=O)N2CCOCC2)cc1C(=O)Nc1cccc(Cl)c1 | inconclusive [inhibitor, single point] | 
COc1ccc(CSc2cccc3cccnc23)cc1[N+](=O)[O-] | inconclusive [inhibitor, full curve, poor fit] | 
O=C(O)Cc1sc(Nc2ccc(Cl)cc2)nc1-c1cccs1 | inactive | 
N#C/C(=C/c1ccc(-c2ccc(S(=O)(=O)N3CCOCC3)cc2)o1)C(=O)NC1CC1 | inconclusive [inhibitor, single point] | 
CCOc1ccc(OCCC(=O)OCC(=O)N2CCN(S(=O)(=O)c3ccc(Cl)cc3)CC2)cc1 | inconclusive [inhibitor, single point] | 
COc1ccccc1/C=N/NC(=O)c1nnn(-c2nonc2N)c1CN(C)c1ccccc1 | inconclusive [inhibitor, partial curve] | 
CSC(=NC#N)N1CCN(c2c(C)cccc2C)CC1 | inconclusive [inhibitor, partial curve] | 
COc1ccc(C(=O)NCc2ccc3c(c2)OCO3)cc1S(=O)(=O)NCc1ccc(Cl)cc1 | inconclusive [inhibitor, partial curve] | 
Cc1ccc(NS(=O)(=O)c2ccc(N/N=C/c3ccccc3OCC(=O)O)c([N+](=O)[O-])c2)c(C)c1 | inconclusive [inhibitor, partial curve, poor fit] | 
Cc1ccc(C(=O)Nc2cccc(-c3ccc(N4CCOCC4)nn3)c2)cc1 | inconclusive [inhibitor, full curve, poor fit] | 
O=C(Nc1cccc([N+](=O)[O-])c1)c1ccc2c(c1)OCCO2 | inactive | 
Cc1cccc(NC(=O)CN2C(=O)S/C(=C\c3cccn3-c3cccc(C(=O)O)c3)C2=O)c1 | inconclusive [inhibitor, full curve] | 
COc1cccc(-c2ccc(-c3noc(-c4ccccc4F)n3)c(OC)n2)c1 | inactive | 
Clc1cccc(CN2CCCCCCC2)c1Cl | inactive | 
O=C(N/N=C/c1ccc(Br)s1)Nc1ccccc1 | inconclusive [inhibitor, single point] | 
CC1=NN(c2ccccc2)C(=O)C1=Cc1ccccc1 | active: 50.1 µM | 
CC1CCN(c2ccc(C(=O)NCCc3ccccc3)cn2)CC1 | inactive | 
Cc1c(C)c(C)c(S(=O)(=O)NCCC(=O)N2CCN(Cc3ccc(C#N)cc3)CC2)c(C)c1C | inactive | 
COc1cccc(C(=O)Nc2ccc(NC(=O)c3ccco3)c(Cl)c2)c1 | inconclusive [inhibitor, single point] | 
CN(CC(=O)Nc1cccc(F)c1)C(=O)c1cccc(S(=O)(=O)N2CC3(C)CC2CC(C)(C)C3)c1 (stereo unspecified) | inconclusive [inhibitor, partial curve] | 

Structure (SMILES) | Potency | activity change, negative = inhibition
O=C(c1ccc(NS(=O)(=O)c2ccccc2)cc1)N1CCN(Cc2ccc3c(c2)OCO3)CC1 |  | inconclusive: -37.5% [inhibitor]
CCn1nccc1C(=O)Nc1ccc(S(=O)(=O)NC23CC4CC(CC(C4)C2)C3)cc1 | inconclusive [inhibitor, full curve, poor fit] | 
COc1cccc2cc(C(C)N(CCCN3CCOCC3)C(=S)Nc3ccc(C)cc3)oc12 (stereo unspecified) | inconclusive [inhibitor, partial curve, poor fit] | 
O=C(Cn1cnc([N+](=O)[O-])c1)NC1CCCC1 | inconclusive [inhibitor, partial curve] | 
COc1cccc(CNC(=O)Cc2ccc(OC)c(S(=O)(=O)N3CCOCC3)c2)c1 | inconclusive [inhibitor, single point] | 
CCC1CCCCN1CCCNC(=O)c1cn(C)c2ccc(S(=O)(=O)N(C)C3CCCCC3)cc2c1=O (stereo unspecified) |  | inconclusive: -30.5% [inhibitor]
N#Cc1c(-c2ccc(Cl)cc2)cc(-c2ccccc2)nc1SCC(=O)O | inactive | 
O=C(O)c1cccc(N2C(=O)c3cccc4cccc(c34)C2=O)c1 | inconclusive [inhibitor, partial curve, poor fit] | 
Cc1ccc(/C=C/C(=O)c2ccccc(=O)c2O)cc1C | inconclusive [inhibitor, partial curve] | 
O=C1NC(=Nc2ccccc2Cl)S/C1=C\c1cc([N+](=O)[O-])ccc1O | active: 79.4 µM | 
COc1cc(NC(=S)NCCC(c2ccccc2)c2ccccc2)c(OC)cc1Cl |  | inconclusive: -15.7% [inhibitor]
COc1ccc(N2CSC3=C(C#N)C(c4cccc(OC)c4OC)CC(=O)N3C2)cc1 (stereo unspecified) | inactive | 
Cc1c(Br)c([N+](=O)[O-])nn1CCCC(=O)Nc1sc2c(c1C#N)CCC2 | inconclusive [inhibitor, partial curve] | 
COc1cccc(C(=O)NC(=S)Nc2ccc(N(C)C)cc2)c1 | inactive | 
CCCCN(C(=O)CNC(=O)c1ccco1)C(C(=O)NC1CCCCC1)c1ccc(OC)cc1OC (stereo unspecified) | inconclusive [inhibitor, partial curve] | 
Cc1cc2c(C)nc(N/N=C/c3ccc([N+](=O)[O-])cc3)nc2o1 | inconclusive [inhibitor, single point] | 
CN(C)S(=O)(=O)c1ccc(NC(=O)C2COc3ccccc3O2)cc1 (stereo unspecified) |  | inconclusive: -4.07% [inhibitor]
C=CCn1c(SCC(=O)N2CCOCC2)nc2ccccc2c1=O | inactive | 
COc1ccc(/C=C2/SC(=O)N(CCC(=O)Nc3ccc(S(=O)(=O)Nc4nccs4)cc3)C2=O)cc1 | active: 50.1 µM | 
O=C(NCCN1CCC(n2c(=O)[nH]c3ccccc32)CC1)c1ccccc1 | inactive | 
O=C(CSc1ncnc2ccccc12)c1cccs1 | inconclusive [inhibitor, single point] | 
CCc1ccc(Cn2nnc(C(=O)Nc3cccc(C)c3)c2N)cc1 | inconclusive [inhibitor, partial curve, poor fit] | 

Structure (SMILES) | Potency | activity change, negative = inhibition
Cc1cc(/C=N/NC(=O)c2ccncc2)c(C)n1-c1ccccc1 | inactive | 
CCS(=O)(=O)c1ncc(Cl)c(C(=O)Nc2ccc(S(=O)(=O)N(C)c3ccccc3)cc2)n1 | inconclusive [inhibitor, partial curve, poor fit] | 
CC(C)c1ccc(NS(=O)(=O)c2cn(C)c(=O)n(C)c2=O)cc1 | inconclusive [inhibitor, single point] | 
CCOC(=O)CNC(=O)N1CCCC(CNS(=O)(=O)Cc2ccccc2)C1 (stereo unspecified) | inconclusive [inhibitor, full curve, poor fit] | 
O=C(c1ccc2c(c1)OCO2)[C@@H]1[C@@H]2C(=O)N(C3CCCCC3)C(=O)[C@@H]2C2c3ccccc3C=CN21 (stereo partly specified) | inactive | 
O=C(Cn1cc(SCc2ccccc2Cl)c2ccccc21)N1CCOCC1 | inconclusive [inhibitor, single point] | 
COc1ccc(OC2CCN(S(=O)(=O)c3ccc(OC)c(OC)c3)CC2)cc1 | inconclusive [inhibitor, full curve] | 
O=C(O)c1ccc(CSc2nnc(SCc3ccccc3)s2)cc1 | inactive | 
CCOC(=O)c1[nH]c2c(c1-c1ccccc1)C(=O)CC(c1ccccc1)C2 (stereo unspecified) | inconclusive [inhibitor, partial curve, poor fit] | 
COc1cc(/C=C/C(=O)O)cc(S(=O)(=O)Nc2ccccc2C(=O)NCc2ccco2)c1OC | inactive | 
Cc1cc(SCC(=O)OCC(=O)N2CCN(C(=O)c3ccco3)CC2)c(C)cc1Br | inactive | 
COc1ccccc1NC(=O)C1=C(C)NC(SCC(=O)c2ccccc2)=C(C#N)C1c1ccco1 (stereo unspecified) | inconclusive [inhibitor, partial curve, poor fit] | 
O=C1/C(=C/c2ccc(F)cc2)SC(=S)N1NS(=O)(=O)c1ccccc1 | inconclusive [inhibitor, partial curve] | 
O=C(COc1cccnc1[N+](=O)[O-])N1N=C(c2ccc(Cl)cc2)CC1c1ccco1 (stereo unspecified) | inactive | 
Cc1onc(-c2c(F)cccc2Cl)c1C(=O)NC1CCSC1=O (stereo unspecified) | inconclusive [inhibitor, single point] | 
O=C(O)c1ccccc1-c1ccc(/C=C2\SC(=O)N(c3ccccc3)C2=O)o1 | inactive | 
O=C(COc1ccc(Cl)cc1Cl)Nc1ccccc1F | inconclusive [inhibitor, partial curve] | 
OCCN(CCO)c1nc(N2CCCCC2)c2nc(N(CCO)CCO)nc(N3CCCCC3)c2n1 | inactive | 
Cc1cc(O)c(C=O)c2c1C(=O)Oc1c(CO)c(O)c3c(c1O2)C(O)OC3=O (stereo unspecified) | inconclusive [inhibitor, partial curve, poor fit] | 
Cc1ccc(C(=O)Nc2cccc([N+](=O)[O-])c2)cc1S(=O)(=O)Nc1cccc(C(=O)O)c1 | inconclusive [inhibitor, single point] | 
Cc1cc(C(=O)CN2C(=O)c3ccccc3S2(=O)=O)c(C)n1C(C)C | inconclusive [inhibitor, single point] | 
COc1ccc(NC(=S)N(CCCN2CCOCC2)C(C)c2cc3cccc(OC)c3o2)cc1 (stereo unspecified) | inconclusive [inhibitor, partial curve] | 

From PubChem BioAssay AID720709 (National Center for Advancing Translational Sciences (NCATS), 2013)
